According to patent US7256286B2, “Bryostatin analogues, synthetic methods and uses” (The Board of Trustees of the Leland Stanford Junior …, priority 1999, dated 2007):

System: NCI-H322M
Assay: cells
From the text: Another useful method for assessing anticancer activities of compounds of the invention involves the multiple-human cancer cell line screening assays run by the National Cancer Institute (e.g., Boyd, 1989). This screening panel, which involves approximately 60 different human cancer cell lines, is a useful indicator of in vivo antitumor activity for a broad variety of tumor types (Grever et al., 1992, Monks et al., 1991), such as leukemia, non-small cell lung, colon, central nervous system (CNS), melanoma, ovarian, renal, prostate, and breast cancers. Antitumor activities can be expressed in terms of ED50 (or GI50), where ED50 is the molar concentration of compound effective to reduce cell growth by 50%. Compounds with lower ED50 values tend to have greater anticancer activities than compounds with higher ED50 values. Example 7 describes a P388 murine lymphocytic leukemia cell assay which measures the ability of compounds of the invention to inhibit cellular growth.
Anticancer data were obtained in vitro for C26 desmethyl bryostatin analogue 702.1 (Example 3A) tested against a spectrum of different NCI human cancer cell-lines associated with various cancer conditions. Data obtained with Bryostatin-1 are included for comparison. Growth inhibition (GI50) values are expressed as the log of molar concentration at half-maximum inhibition.

| Compound | Growth inhibition (GI50) (NCI-H322M, NSC Lung) | Difference (GI50 desmethyl vs Bryo-1) | GI50 (Homo sapiens, NCI-H322M, read-out: Growth inhibition (GI50) (converted)) [µM] |
| --- | --- | --- | --- |
| CCC/C=C/C=C/C(=O)O[C@H]1/C(=C/C(=O)OC)C[C@H]2C[C@H]([C@@H](C)O)OC(=O)C[C@H](O)C[C@@H]3C[C@H](OC(C)=O)C(C)(C)[C@](O)(C[C@@H]4C/C(=C/C(=O)OC)C[C@H](/C=C/C(C)(C)[C@]1(O)O2)O4)O3 [Bryo-1, reference compound] | −6.00 log of molar concentration | – | – |
| CCCCCCCC(=O)O[C@H]1/C(=C/C(=O)OC)C[C@H]2C[C@H](CO)OC(=O)C[C@H](O)C[C@@H]3CCCC(CC4CCO[C@H](/C=C/C(C)(C)[C@]1(O)O2)O4)O3 [Formula IIa (702.1)] | – | 1.62 | 41.7 |
